Some of the results follow.
How the values were obtained:
Test in all cases: glycan array binding signal (z-score within array); higher = stronger binding
Conditions in all cases: glycan notation: IUPAC condensed, linker removed
[1] = biological target: Fuc(a1-2)Gal(b1-4)GlcNAc(b1-3)Gal(b1-4)GlcNAc(b1-3)Gal(b1-4)GlcNAc
Procedure, shortened: (§1)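 Glycan array data were curated from 3228 arrays in the Consortium for Functional Glycomics database and kept only where the protein sequence was available. Glycan names were converted to IUPAC-condensed notation, and columns mapping to the same glycan were averaged. The binding signal is a within-array Z-score, averaged across arrays of the same protein sequence at different concentrations or buffers and across linkers. Negative Z-scores can be read as non-binding.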

[2] = biological target: Fuc(a1-2)Gal(b1-4)GlcNAc(b1-3)GalNAc
Procedure, shortened: as §1

[3] = biological target: Fuc(a1-2)Gal(b1-4)GlcNAc(b1-3)[Fuc(a1-2)Gal(b1-4)GlcNAc(b1-6)]GalNAc
Procedure, shortened: as §1

[4] = biological target: Fuc(a1-2)Gal(b1-4)GlcNAc(b1-3)[Fuc(a1-3)[Gal(b1-4)]GlcNAc(b1-6)]Gal(b1-4)Glc
Procedure, shortened: as §1

[5] = biological target: Fuc(a1-2)Gal(b1-4)GlcNAc(b1-6)GalNAc
Procedure, shortened: as §1

[6] = biological target: Fuc(a1-2)Gal(b1-4)GlcNAc6S
Procedure, shortened: as §1

[7] = biological target: Fuc(a1-2)Gal(b1-4)[Fuc(a1-3)]GlcNAc
Procedure, shortened: as §1

[8] = biological target: Fuc(a1-2)Gal(b1-4)[Fuc(a1-3)]GlcNAc(b1-2)Man(a1-3)[Fuc(a1-2)Gal(b1-4)[Fuc(a1-3)]GlcNAc(b1-2)Man(a1-6)]Man(b1-4)GlcNAc(b1-4)[Fuc(a1-6)]GlcNAc
Procedure, shortened: as §1

[9] = biological target: Fuc(a1-2)Gal(b1-4)[Fuc(a1-3)]GlcNAc(b1-2)[Fuc(a1-2)Gal(b1-4)[Fuc(a1-3)]GlcNAc(b1-4)]Man(a1-3)[Fuc(a1-2)Gal(b1-4)[Fuc(a1-3)]GlcNAc(b1-2)Man(a1-6)]Man(b1-4)GlcNAc(b1-4)GlcNAc
Procedure, shortened: as §1

[10] = biological target: Fuc(a1-2)Gal(b1-4)[Fuc(a1-3)]GlcNAc(b1-3)Gal(b1-4)[Fuc(a1-3)]GlcNAc
Procedure, shortened: as §1

[11] = biological target: Fuc(a1-2)Gal(b1-4)[Fuc(a1-3)]GlcNAc(b1-3)Gal(b1-4)[Fuc(a1-3)]GlcNAc(b1-3)Gal(b1-4)[Fuc(a1-3)]GlcNAc
Procedure, shortened: as §1

[12] = biological target: Fuc(a1-2)Gal(b1-4)[Fuc(a1-3)]GlcNAc(b1-3)GalNAc
Procedure, shortened: as §1

[13] = biological target: Fuc(a1-2)Gal(b1-4)[Fuc(a1-3)]GlcNAc(b1-3)[Neu5Ac(a2-6)Gal(b1-4)GlcNAc(b1-6)]Gal(b1-4)Glc
Procedure, shortened: as §1

[14] = biological target: Fuc(a1-2)Gal3S(b1-4)GlcNAc
Procedure, shortened: as §1

[15] = biological target: Fuc(a1-2)Gal6S(b1-3)GlcNAc
Procedure, shortened: as §1

[16] = biological target: Fuc(a1-2)Gal6S(b1-3)GlcNAc6S
Procedure, shortened: as §1

[17] = biological target: Fuc(a1-2)Gal6S(b1-4)Glc
Procedure, shortened: as §1

[18] = biological target: Fuc(a1-2)Gal6S(b1-4)Glc6S
Procedure, shortened: as §1

[19] = biological target: Fuc(a1-2)[Gal(a1-3)]Gal
Procedure, shortened: as §1

[20] = biological target: Fuc(a1-2)[Gal(a1-3)]Gal(b1-3)GalNAc
Procedure, shortened: as §1

[21] = biological target: Fuc(a1-2)[Gal(a1-3)]Gal(b1-3)GalNAc(b1-3)Gal(a1-4)Gal(b1-4)Glc
Procedure, shortened: as §1

[22] = biological target: Fuc(a1-2)[Gal(a1-3)]Gal(b1-3)GlcNAc
Procedure, shortened: as §1

[23] = biological target: Fuc(a1-2)[Gal(a1-3)]Gal(b1-3)GlcNAc(b1-2)Man(a1-3)[Fuc(a1-2)[Gal(a1-3)]Gal(b1-3)GlcNAc(b1-2)Man(a1-6)]Man(b1-4)GlcNAc(b1-4)GlcNAc
Procedure, shortened: as §1

[24] = biological target: Fuc(a1-2)[Gal(a1-3)]Gal(b1-3)GlcNAc(b1-2)Man(a1-3)[Fuc(a1-2)[Gal(a1-3)]Gal(b1-3)GlcNAc(b1-2)Man(a1-6)]Man(b1-4)GlcNAc(b1-4)[Fuc(a1-6)]GlcNAc
Procedure, shortened: as §1

[25] = biological target: Fuc(a1-2)[Gal(a1-3)]Gal(b1-3)GlcNAc(b1-3)GalNAc
Procedure, shortened: as §1

[26] = biological target: Fuc(a1-2)[Gal(a1-3)]Gal(b1-3)GlcNAc(b1-6)GalNAc
Procedure, shortened: as §1

[27] = biological target: Fuc(a1-2)[Gal(a1-3)]Gal(b1-4)Glc
Procedure, shortened: as §1

[28] = biological target: Fuc(a1-2)[Gal(a1-3)]Gal(b1-4)GlcNAc
Procedure, shortened: as §1

[29] = biological target: Fuc(a1-2)[Gal(a1-3)]Gal(b1-4)GlcNAc(b1-2)Man
Procedure, shortened: as §1

[30] = biological target: Fuc(a1-2)[Gal(a1-3)]Gal(b1-4)GlcNAc(b1-2)Man(a1-3)[Fuc(a1-2)[Gal(a1-3)]Gal(b1-4)GlcNAc(b1-2)Man(a1-6)]Man(b1-4)GlcNAc(b1-4)GlcNAc
Procedure, shortened: as §1

B1: Blon2468mut (Bifidobacterium longum) (protein)
chain: MTFIKQMMPRYVASMTAGIVAAAMAATCAFAPVANADAVSPTQETIQSTGRHFMVYYRAWRDVTMKGVNTDLPDDNWISMYDIPYGVDVVNIFSYVPSGQEEQAQPFYDKLKSDYAPYLHSRGIKLVRGIDYTGVAVNGFRTFMKEQNKTESEATEADYDAYAKQVIDKYMISVGLDGLDIDMQAHPNDADVKISDNVIRALSKHIGPKSAKPDTTMFLYDTNGSYLNPFKNVAECFDYVAYQQYGSSSDRTARAAADYQPYIGNEFVPGLTFPEEGDMNNRWYDATEPYEESHFYQVASYVREHNLGGMFVYALDRDGRNYDEDLRRIVPSNLLWTKTAIAESEGMALDTAKTAANHYLDRMSLRQVIDDNAASADKARDMVGKAANLYETNKAVLGGDYGEGFSNTYDPTLEAGLLGIDISVLQQQIDKSSEIIGADTAESDAKTALRMARDAAIDGLTGKIYTADQVSAWSQALKAALDATVPVPTPDSTDQNGNRDKVTNHKVQGQPKQLSATGISTDIIVAVGVTLAIAGVALSLSRKLS
**Q.** Which “glycan array binding signal (z-score)” value [1] does the source give for B1 here?
**A.** -0.043

**Q.** And the “glycan array binding signal (z-score)” value [2]?
**A.** -0.034

**Q.** What about the “glycan array binding signal (z-score)” value [3] of the same binder?
**A.** -0.08

**Q.** And the “glycan array binding signal (z-score)” value [4]?
**A.** -0.086

**Q.** What about the “glycan array binding signal (z-score)” value [5] of the same binder?
**A.** -0.025

**Q.** And the “glycan array binding signal (z-score)” value [6]?
**A.** -0.08

**Q.** What about the “glycan array binding signal (z-score)” value [7] of the same binder?
**A.** -0.065

**Q.** What about the “glycan array binding signal (z-score)” value [8] of the same binder?
**A.** -0.014

**Q.** What about the “glycan array binding signal (z-score)” value [9] of the same binder?
**A.** -0.036

**Q.** And the “glycan array binding signal (z-score)” value [10]?
**A.** -0.051

**Q.** What about the “glycan array binding signal (z-score)” value [11] of the same binder?
**A.** -0.079

**Q.** What about the “glycan array binding signal (z-score)” value [12] of the same binder?
**A.** -0.029

**Q.** And the “glycan array binding signal (z-score)” value [13]?
**A.** -0.082

**Q.** What about the “glycan array binding signal (z-score)” value [14] of the same binder?
**A.** -0.049

**Q.** And the “glycan array binding signal (z-score)” value [15]?
**A.** -0.018

**Q.** And the “glycan array binding signal (z-score)” value [16]?
**A.** 0.078

**Q.** What about the “glycan array binding signal (z-score)” value [17] of the same binder?
**A.** -0.041

**Q.** What about the “glycan array binding signal (z-score)” value [18] of the same binder?
**A.** -0.073

**Q.** And the “glycan array binding signal (z-score)” value [19]?
**A.** -0.015

**Q.** And the “glycan array binding signal (z-score)” value [20]?
**A.** -0.076

**Q.** What about the “glycan array binding signal (z-score)” value [21] of the same binder?
**A.** -0.048

**Q.** And the “glycan array binding signal (z-score)” value [22]?
**A.** -0.06

**Q.** What about the “glycan array binding signal (z-score)” value [23] of the same binder?
**A.** -0.079

**Q.** And the “glycan array binding signal (z-score)” value [24]?
**A.** -0.055

**Q.** What about the “glycan array binding signal (z-score)” value [25] of the same binder?
**A.** -0.085

**Q.** What about the “glycan array binding signal (z-score)” value [26] of the same binder?
**A.** -0.055

**Q.** And the “glycan array binding signal (z-score)” value [27]?
**A.** -0.073

**Q.** What about the “glycan array binding signal (z-score)” value [28] of the same binder?
**A.** -0.08

**Q.** And the “glycan array binding signal (z-score)” value [29]?
**A.** -0.028

**Q.** And the “glycan array binding signal (z-score)” value [30]?
**A.** -0.015

— the supplement of paper PMC8728848
